Test results from patent EP4731682A1 (dated 2026).

T1: recombinant human PVR-ECD/His (human, UniProt P15151 21-343)
T1 construct: extracellular domain; Bought reagent; not shown: C-terminal His-tag
T1 sequence (looked up): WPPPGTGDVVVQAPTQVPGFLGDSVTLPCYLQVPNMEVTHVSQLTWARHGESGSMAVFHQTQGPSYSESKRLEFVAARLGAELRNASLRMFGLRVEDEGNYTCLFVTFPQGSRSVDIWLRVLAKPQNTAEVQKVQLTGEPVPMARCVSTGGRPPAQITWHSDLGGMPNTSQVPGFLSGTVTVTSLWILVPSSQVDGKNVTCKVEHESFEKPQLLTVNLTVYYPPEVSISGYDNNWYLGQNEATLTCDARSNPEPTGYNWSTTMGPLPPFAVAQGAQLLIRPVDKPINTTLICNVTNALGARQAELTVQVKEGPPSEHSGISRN

T2: recombinant human Nectin-2-ECD/Fc fusion protein (human, UniProt Q92692 32-360)
T2 construct: extracellular domain; Bought reagent; not shown: Fc of the bought fusion protein
T2 sequence (looked up): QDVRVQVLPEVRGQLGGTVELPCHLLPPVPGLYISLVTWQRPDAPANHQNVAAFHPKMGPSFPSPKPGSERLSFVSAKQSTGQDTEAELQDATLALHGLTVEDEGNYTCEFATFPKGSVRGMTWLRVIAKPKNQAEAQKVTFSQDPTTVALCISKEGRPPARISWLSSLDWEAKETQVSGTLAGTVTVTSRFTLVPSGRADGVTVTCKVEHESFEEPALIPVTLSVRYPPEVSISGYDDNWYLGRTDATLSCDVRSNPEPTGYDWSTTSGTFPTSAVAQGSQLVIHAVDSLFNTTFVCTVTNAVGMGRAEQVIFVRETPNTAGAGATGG

B1: TgPS-E_v2 (Fc fusion)
chain: MMTGTIETTGNISAEKGGSIILQCHLSSTTAQVTQVNWEQQDQLLAICNADLGWHISPSFKDRVAPGPGLGLTLQSLTVNDTGEYFCIYHTYPDGTYTGRIFLEVLESSVAEHGARAS[human IgG4 Fc with S228P (EU numbers) not shown]AAASSGGGGSGGGGSEEELQVIQPDKSVSVAAGESAILRCTVTSLTPVGPIQWFRGAGPARELIYNQKAKQFPRVTTVSESTKRENMIFSISISNITPADAGTYYCVKFRKGSPDTEFKSGAGTELSVRAKPSGSGGSGGSGGSGGSGSHGHHGHGGGGPTFSPALLVVTEGDNATFTCSFSNTSESFVLNWYRMSPHNQTDKLAAFPEDRSQPGQDCRFRVTQLPNGRDFHMSVVRARRNDSGTYLCGAISLAPKAQIKESLRAELRVTERRAEVPTAHPSPSPRPAGQFQTLV
notes: Two identical chains
B2: TgPS-C1_v2 (Fc fusion)
chain: SHGHHGHGGGGPTFSPALLVVTEGDNATFTCSFSNTSESFVLNWYRMSPHNQTDKLAAFPEDRSQPGQDCRFRVTQLPNGRDFHMSVVRARRNDSGTYLCGAISLAPKAQIKESLRAELRVTERRAEVPTAHPSPSPRPAGQFQTLVGSGGSGGSGGSGGSGMMTGTIETTGNISAEKGGSIILQCHLSSTTAQVTQVNWEQQDQLLAICNADLGWHISPSFKDRVAPGPGLGLTLQSLTVNDTGEYFCIYHTYPDGTYTGRIFLEVLESSVAEHGARAS[human IgG1 Fc with changes not shown]AAASSGGGGSGGGGSEEELQVIQPDKSVSVAAGESAILRCTVTSLTPVGPIQWFRGAGPARELIYNQKAKQFPRVTTVSESTKRENMIFSISISNITPADAGTYYCVKFRKGSPDTEFKSGAGTELSVRAKPS
notes: Two identical chains
B3: SIRPα-mt15/G1Fc (Fc fusion)
chain: EEELQVIQPDKSVSVAAGESAILRCTVTSLTPVGPIQWFRGAGPARELIYNQKAKQFPRVTTVSESTKRENMIFSISISNITPADAGTYYCVKFRKGSPDTEFKSGAGTELSVRAKPSAS[human IgG1 Fc with changes not shown]
B4: TgPS-D_v2 (Fc fusion)
chain: MMTGTIETTGNISAEKGGSIILQCHLSSTTAQVTQVNWEQQDQLLAICNADLGWHISPSFKDRVAPGPGLGLTLQSLTVNDTGEYFCIYHTYPDGTYTGRIFLEVLESSVAEHGARGSGGSGGSGGSGGSGSHGHHGHGGGGPTFSPALLVVTEGDNATFTCSFSNTSESFVLNWYRMSPHNQTDKLAAFPEDRSQPGQDCRFRVTQLPNGRDFHMSVVRARRNDSGTYLCGAISLAPKAQIKESLRAELRVTERRAEVPTAHPSPSPRPAGQFQTLVAS[human IgG4 Fc with S228P (EU numbers) not shown]AAASSGGGGSGGGGSEEELQVIQPDKSVSVAAGESAILRCTVTSLTPVGPIQWFRGAGPARELIYNQKAKQFPRVTTVSESTKRENMIFSISISNITPADAGTYYCVKFRKGSPDTEFKSGAGTELSVRAKPS
notes: Two identical chains
B5: TgPS-C2_v2 (Fc fusion)
chain: SHGHHGHGGGGPTFSPALLVVTEGDNATFTCSFSNTSESFVLNWYRMSPHNQTDKLAAFPEDRSQPGQDCRFRVTQLPNGRDFHMSVVRARRNDSGTYLCGAISLAPKAQIKESLRAELRVTERRAEVPTAHPSPSPRPAGQFQTLVGSGGSGGSGGSGGSGMMTGTIETTGNISAEKGGSIILQCHLSSTTAQVTQVNWEQQDQLLAICNADLGWHISPSFKDRVAPGPGLGLTLQSLTVNDTGEYFCIYHTYPDGTYTGRIFLEVLESSVAEHGARAS[human IgG4 Fc with S228P (EU numbers) not shown]AAASSGGGGSGGGGSEEELQVIQPDKSVSVAAGESAILRCTVTSLTPVGPIQWFRGAGPARELIYNQKAKQFPRVTTVSESTKRENMIFSISISNITPADAGTYYCVKFRKGSPDTEFKSGAGTELSVRAKPS
notes: Two identical chains
B6: TIGIT/G4Fc (Fc fusion)
chain: MMTGTIETTGNISAEKGGSIILQCHLSSTTAQVTQVNWEQQDQLLAICNADLGWHISPSFKDRVAPGPGLGLTLQSLTVNDTGEYFCIYHTYPDGTYTGRIFLEVLESSVAEHGARAS[human IgG4 Fc with S228P (EU numbers) not shown]
notes: TIGIT extracellular domain fused to an IgG4 Fc; also called Biotin-TIGIT/G4Fc
B7: PD-1-mt13/G4Fc (Fc fusion)
chain: SHGHHGHGGGGPTFSPALLVVTEGDNATFTCSFSNTSESFVLNWYRMSPHNQTDKLAAFPEDRSQPGQDCRFRVTQLPNGRDFHMSVVRARRNDSGTYLCGAISLAPKAQIKESLRAELRVTERRAEVPTAHPSPSPRPAGQFQTLV[human IgG4 Fc with S228P (EU numbers) not shown]
B8: TIGIT/G1Fc (Fc fusion)
chain: MMTGTIETTGNISAEKGGSIILQCHLSSTTAQVTQVNWEQQDQLLAICNADLGWHISPSFKDRVAPGPGLGLTLQSLTVNDTGEYFCIYHTYPDGTYTGRIFLEVLESSVAEHGARAS[human IgG1 Fc with changes not shown]
notes: TIGIT extracellular domain fused to an IgG1 Fc

These binders were tested against T3, recombinant human CD47-ECD/His (human, UniProt Q08722 fragment) (assay: ELISA; CD47-ECD/His coated 1 ug/mL, HRP anti-human IgG Fc (FIG. 16C)).
T3 construct: extracellular domain; Bought reagent; not shown: C-terminal His-tag
T3 sequence (Q08722 19-139 limits assumed): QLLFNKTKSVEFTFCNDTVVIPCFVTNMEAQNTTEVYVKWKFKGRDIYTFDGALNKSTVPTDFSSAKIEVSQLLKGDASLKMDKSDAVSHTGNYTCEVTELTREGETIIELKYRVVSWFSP

Binding result, binds:
B1
B2
B3
B4
B5

These binders were tested against T4, recombinant PVR-ECD/Fc fusion protein (human, biotinylated (Biotin-PVR-ECD/Fc; sites not stated)) (assay: ELISA; binder coated 1 ug/mL, serially diluted Biotin-PVR-ECD/Fc, HRP-avidin (FIG. 2A)).
T4 construct: also called Biotin-PVR-ECD/Fc

Binding result, binds:
B6

These binders were tested against T5, recombinant human PD-L1-ECD/His (human, UniProt Q9NZQ7 fragment) (assay: ELISA; PD-L1-ECD/His coated 1 ug/mL, HRP anti-human IgG Fc (FIG. 16B)).
T5 construct: extracellular domain; Bought reagent; not shown: C-terminal His-tag
T5 sequence (Q9NZQ7 19-238): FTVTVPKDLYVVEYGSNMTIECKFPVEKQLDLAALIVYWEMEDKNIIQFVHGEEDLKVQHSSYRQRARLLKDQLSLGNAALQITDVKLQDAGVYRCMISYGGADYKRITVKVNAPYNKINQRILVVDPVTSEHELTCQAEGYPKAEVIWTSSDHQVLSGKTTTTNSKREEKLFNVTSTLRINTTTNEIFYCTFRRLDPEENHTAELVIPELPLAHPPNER

Binding result, binds:
B1
B2
B7
B4
B5

What follows are binders tested against T1, recombinant human PVR-ECD/His (assay: ELISA; PVR-ECD/His coated 1 ug/mL, HRP anti-human IgG Fc (FIG. 16A)).

Binding result, binds:
B1
B2
B4
B6
B8
B5

The binders below were run against T2, recombinant human Nectin-2-ECD/Fc … (assay: ELISA; Nectin-2-ECD/Fc coated 1 ug/mL, Biotin-TIGIT/G4Fc, HRP-avidin (FIG. 2B)).

Binding result, binds:
B6
